Test results from article PMC3602246 (BMC Pharmacology & Toxicology, 2013).
Where a name gives a salt, the structure may show the parent alone. No end group written: not given here.

Legend:
SH-SY5Y cells = experiment: iPOT DMR profiling of SH-SY5Y cells pretreated with probe molecules; details: 1 hr, ligand 10 μM; for effect of forskolin pretreatment on ligand DMR: 10 μM forskolin; for effect of the kinase inhibitors on ligand DMR: U0126, SB202190, SP600125 or LY294002, 10 μM
HEK293 cells = details: ligand 10 μM; for DMR agonist activity classification, HEK: parental HEK293

“Dynorphin A (1–8) (YGGFLRRI; Dynorphin A(1-8); UniProt P01213 207-214, looked up, fragment)” was tested. Which “effect of forskolin pretreatment on ligand DMR” value (SH-SY5Y cells) did it give?
Its value is “suppressed”.

What about the “effect of the kinase inhibitors on ligand DMR” value (SH-SY5Y cells) of the same compound?
Its value is “mostly suppressed”.

How did the “DMR in parental HEK293 cells, in words” value (HEK293 cells) turn out when COC(=O)/C=C/C(=O)N[C@@H]1CC[C@@]2(O)[C@H]3Cc4ccc(O)c5c4[C@@]2(CCN3CC2CC2)[C@H]1O5 [β-Funaltrexamine] was run?
Its value is “noticeable DMR”.

What about the “DMR agonist activity classification, HEK” value (HEK293 cells) of the same compound?
The value was “off-target”.

How did the “effect of the kinase inhibitors on ligand DMR” value (SH-SY5Y cells) turn out when COC(=O)N1CCN(C(=O)Cc2ccc(Cl)c(Cl)c2)C(CN2CCCC2)C1 (stereo not shown) [GR 89696] was run?
Its value is “mostly suppressed”.

With “Nociceptin (1–13) (FGGFTGARKSARK-NH2; UniProt Q13519 130-142, looked up, fragment)” as the compound, how does the “DMR in parental HEK293 cells, in words” value (HEK293 cells) read?
The value was “noticeable DMR”.

And the “DMR agonist activity classification, HEK” value (HEK293 cells)?
Its value is “off-target”.

CN(C(=O)Cc1ccc(Cl)c(Cl)c1)[C@H](CN1CCCC1)c1ccccc1 [ICI 199,441] was tested. Which “DMR in parental HEK293 cells, in words” value (HEK293 cells) did it give?
Its value is “noticeable DMR”.

And the “DMR agonist activity classification, HEK” value (HEK293 cells)?
The value was “off-target”.

What does the source list for O=C1/C(=C/c2ccccc2)C[C@@]2(O)[C@H]3Cc4ccc(O)c5c4[C@@]2(CCN3CC2CC2)[C@H]1O5 [BNTX]?
DMR in parental HEK293 cells, in words (HEK293 cells): noticeable DMR; DMR agonist activity classification, HEK (HEK293 cells): off-target

Which “effect of forskolin pretreatment on ligand DMR” value (SH-SY5Y cells) does the source give for DSLET here?
Its value is “suppressed”.

With C=CCN1CC[C@]23c4c5ccc(O)c4O[C@H]2C(=O)CC[C@@]3(O)[C@H]1C5 [Naloxone HCl] as the compound, how does the “DMR agonist activity classification, HEK” value (HEK293 cells) read?
The value was “inactive”.
